# Test results: the supplement of paper PMC8728848
# The list shows a part of the results.
# Legend:
# Experiment in all cases: glycan array binding signal (z-score within array); higher = stronger binding
# Conditions in all cases: glycan notation: IUPAC condensed, linker removed; mutation: Y228W
# [1] = target: Gal(b1-4)GlcNAc(b1-3)Gal(b1-4)GlcNAc(b1-3)[Gal(b1-4)GlcNAc(b1-3)Gal(b1-4)GlcNAc(b1-6)]GalNAc
# Summary of the method: (§1)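 Columns mapping to the same glycan were averaged after glycan names were converted to IUPAC-condensed notation. The data come from 3228 arrays in the Consortium for Functional Glycomics database, limited to those with an available protein sequence. Binding is reported as a within-array Z-score averaged across arrays of one protein sequence and across linkers.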
# [2] = target: Gal(b1-4)GlcNAc(b1-3)Gal(b1-4)GlcNAc(b1-6)[Gal(b1-3)]GalNAc
# Summary of the method: as §1
# [3] = target: Gal(b1-4)GlcNAc(b1-3)Gal(b1-4)[Fuc(a1-3)]GlcNAc(b1-3)Gal(b1-4)[Fuc(a1-3)]GlcNAc
# Summary of the method: as §1
# [4] = target: Gal(b1-4)GlcNAc(b1-3)GalNAc
# Summary of the method: as §1
# [5] = target: Gal(b1-4)GlcNAc(b1-3)[Fuc(a1-3)GlcNAc(b1-6)]Gal(b1-4)Glc
# Summary of the method: as §1
# [6] = target: Gal(b1-4)GlcNAc(b1-3)[Gal(b1-4)GlcNAc(b1-6)]Gal(b1-4)GlcNAc
# Summary of the method: as §1
# [7] = target: Gal(b1-4)GlcNAc(b1-3)[GlcNAc(b1-6)]Gal(b1-4)GlcNAc
# Summary of the method: as §1
# [8] = target: Gal(b1-4)GlcNAc(b1-6)Gal(b1-4)GlcNAc
# Summary of the method: as §1
# [9] = target: Gal(b1-4)GlcNAc(b1-6)GalNAc
# Summary of the method: as §1
# [10] = target: Gal(b1-4)GlcNAc(b1-6)[Gal(b1-3)]GalNAc
# Summary of the method: as §1
# [11] = target: Gal(b1-4)GlcNAc(b1-6)[Gal(b1-4)GlcNAc(b1-3)]GalNAc
# Summary of the method: as §1
# Gal(b1-4)GlcNAc6P = target: Gal(b1-4)GlcNAc6P
# Summary of the method: as §1
# Gal(b1-6)Gal = target: Gal(b1-6)Gal
# Summary of the method: as §1
# Gal3S(b1-3)GalNAc = target: Gal3S(b1-3)GalNAc
# Summary of the method: as §1
# Gal3S(b1-3)GlcNAc = target: Gal3S(b1-3)GlcNAc
# Summary of the method: as §1
binder,measurement,setting,value
"Epa1-NP-mutant-Y228W (Candida glabrata), Q6VBJ0 (protein) MILNPALFLNKCVCIYTTLILLLLTNGGYATSSNDISLASKDPTTFPLGCSPDITTPKKGLSMELYSYDFRKKGSYPCWDAAYLDPNYPRTGYKSHRLLAKVDGVTGNINFYYHATKGCTPQLGHLPASYNYPKPLTMTNFTMLLYGYFRPKVTGFHTFTISADDLLFVNFGAGNAFDCCRRDSSADHFGNYQAYAIWGSKTAKDELTVHLDAGVYYPIRLFYNNREWDGALSFTFKTESNENTVSDFSEYFFSLDDTEEGCPGLISYDSSCASVKTSKIIGIDYHTETPNENLVPITKTIYHLGIPCTGTTTTPLCGSGFYDPLANKCVTINTSSTSSVTKTTSHTTSKEVSFHSSISSQKTLIPKSIPSPYGPIKSQSIPTEMETSSEISSSEYAFSDVISTPSHSPYTKKHSSLNSSSYTSTVIHSLTSYSISQGIFSTSLSEQNITSKSSTDKFSTATSMSNNITQSSIIISQFSTNNENYTTTSMHTSSDKISTETLNNSISTTTSILFSNSSTILKNNTTIISSDKDTHYHPVNPTIVCSTNKTEIICASITQPSISNSNNHWSSSVLKFNSTTVRSTLPSSAGSNETSINVPFSSSTESNTSTSSTSTSNSKMVRSTLPSSAGSNETSISVPFSSSTESNTSTSSTSTSNSKMVRSTLPSSAGSNETSINVPFSSSTESNTSTSSTSTSNSKTVRSTPFSSAGIIMTSLSQRNNKSASSYASSNSKCYNTADSCRKVHSTPSYLLTSSYTSEGVDYDCSLVSTKLKINDTNCVNNKHTTKSCLKTSVTTTIPTLEIKTARKSSSNTIGLHSYPTSSPNKSISSAPIIGYISSFKTIKTASPSYQTSDLTTITTITSLNNPGSTAVENTHESNDKSRKTSSNDISSKHSVIKETKDAVESSNKSHQTNTLKCSSIIIASSSHNSYESLGGTTLTLTLSKVYSPQNNDTLPFLEISEVNPSRTVLPESSKMMQYLTSTEERNKTARNTIATNIVSISTFHFEGEGNAIRMGYTQLLLMLIGIIVMNIGT",glycan array binding signal (z-score),[1],0.421
same,glycan array binding signal (z-score),[2],0.576
same,glycan array binding signal (z-score),[3],-0.038
same,glycan array binding signal (z-score),[4],-0.208
same,glycan array binding signal (z-score),[5],-0.175
same,glycan array binding signal (z-score),[6],0.838
same,glycan array binding signal (z-score),[7],-0.35
same,glycan array binding signal (z-score),[8],1.66
same,glycan array binding signal (z-score),[9],0.665
same,glycan array binding signal (z-score),[10],2.77
same,glycan array binding signal (z-score),[11],0.784
same,glycan array binding signal (z-score),Gal(b1-4)GlcNAc6P,-0.271
same,glycan array binding signal (z-score),Gal(b1-6)Gal,0.055
same,glycan array binding signal (z-score),Gal3S(b1-3)GalNAc,-0.073
same,glycan array binding signal (z-score),Gal3S(b1-3)GlcNAc,-0.142
